Reference: the antibiotic and cytotoxicity screens of Wong et al. (2023)
The other results are listed elsewhere or left out.

Assays:
HSkMC = human skeletal muscle cells; assay: cytotoxicity call (relative viability < 0.9); settings: 10 µM
HepG2 = assay: cytotoxicity call (relative viability < 0.9); settings: 10 µM
S. aureus RN4220 = assay: growth inhibition call (relative growth <= 0.2); settings: 50 µM

CCCCC1=NC2(CCCC2)C(=O)N1Cc1ccc(-c2ccccc2-c2nnn[nH]2)cc1
cytotoxicity call (HSkMC): inactive
cytotoxicity call (HepG2): inactive
growth inhibition call (S. aureus RN4220): inactive

CSc1ncccc1C(N)=O
cytotoxicity call (HSkMC): inactive
cytotoxicity call (HepG2): inactive
growth inhibition call (S. aureus RN4220): inactive

Cc1ccc(-c2cnc3c(c2)C(=O)N([C@H](C)CO)C[C@@H](C)[C@H](CN(C)C(=O)Cc2ccncc2)O3)cc1
cytotoxicity call (HSkMC): inactive
cytotoxicity call (HepG2): inactive
growth inhibition call (S. aureus RN4220): inactive

CN(C)CCCCCCNC(=O)[C@H]1C[C@H]2C(=O)NCC(=O)N2[C@H]1c1cccc(OCCO)c1
cytotoxicity call (HSkMC): inactive
cytotoxicity call (HepG2): inactive
growth inhibition call (S. aureus RN4220): inactive

Cc1ccc(S(=O)(=O)Nc2ccc3c(c2)C(=O)N(C)[C@@H]2CC[C@H](CC(=O)NCCc4ccncc4)O[C@H]2CO3)cc1
cytotoxicity call (HSkMC): inactive
cytotoxicity call (HepG2): inactive
growth inhibition call (S. aureus RN4220): inactive

C[C@@H]1CN([C@H](C)CO)C(=O)Cc2cc(NC(=O)C3CC3)ccc2O[C@@H]1CN(C)S(=O)(=O)c1ccc(Cl)cc1
cytotoxicity call (HSkMC): inactive
cytotoxicity call (HepG2): inactive
growth inhibition call (S. aureus RN4220): inactive

CSc1nc(C)nc2ccccc12
cytotoxicity call (HSkMC): inactive
cytotoxicity call (HepG2): inactive
growth inhibition call (S. aureus RN4220): inactive

C[C@H](CO)N1C[C@H](C)[C@@H](CN(C)S(=O)(=O)c2ccc(F)cc2)Oc2c(NC(=O)c3ccncc3)cccc2C1=O
cytotoxicity call (HSkMC): inactive
cytotoxicity call (HepG2): inactive
growth inhibition call (S. aureus RN4220): inactive

COc1ccc(S(=O)(=O)Nc2ccc3c(c2)CC(=O)N([C@H](C)CO)C[C@@H](C)[C@H](CN(C)S(=O)(=O)c2ccc(OC)cc2)O3)cc1
cytotoxicity call (HSkMC): inactive
cytotoxicity call (HepG2): inactive
growth inhibition call (S. aureus RN4220): inactive

C[C@@H]1CCCCO[C@H](CN(C)C(=O)Nc2ccc(C(F)(F)F)cc2)[C@H](C)CN([C@H](C)CO)C(=O)c2cc(N(C)C)ccc2O1
cytotoxicity call (HSkMC): inactive
cytotoxicity call (HepG2): inactive
growth inhibition call (S. aureus RN4220): inactive

COc1ccc(S(=O)(=O)N2C[C@@H](O)COC[C@@H]3O[C@H](CC(=O)NCCN4CCCCC4)CC[C@H]32)cc1
cytotoxicity call (HSkMC): inactive
cytotoxicity call (HepG2): inactive
growth inhibition call (S. aureus RN4220): inactive

C[C@H]1CCCCO[C@@H](CN(C)C(=O)Nc2ccc(C(F)(F)F)cc2)[C@@H](C)CN([C@@H](C)CO)C(=O)c2cc(NC(=O)C3CCCCC3)ccc2O1
cytotoxicity call (HSkMC): inactive
cytotoxicity call (HepG2): inactive
growth inhibition call (S. aureus RN4220): inactive

COC(=O)c1cn(C)cn1
cytotoxicity call (HSkMC): inactive
cytotoxicity call (HepG2): inactive
growth inhibition call (S. aureus RN4220): inactive

CN(C)CCCSC(=N)N
cytotoxicity call (HSkMC): inactive
cytotoxicity call (HepG2): inactive
growth inhibition call (S. aureus RN4220): inactive

CC(C)(C)Cc1ccc(OCCCC(=O)O)c(CC(C)(C)C)c1
cytotoxicity call (HSkMC): inactive
cytotoxicity call (HepG2): inactive
growth inhibition call (S. aureus RN4220): active

C[C@H](CO)N1C[C@H](C)[C@H](CN(C)C(=O)Cc2ccccn2)Oc2ncc(C#CC3CCCC3)cc2C1=O
cytotoxicity call (HSkMC): inactive
cytotoxicity call (HepG2): inactive
growth inhibition call (S. aureus RN4220): inactive

COc1ccccc1CNC(=O)C[C@@H]1C[C@H]2c3cc(NC(=O)NC4CCCC4)ccc3O[C@H]2[C@@H](CO)O1
cytotoxicity call (HSkMC): inactive
cytotoxicity call (HepG2): inactive
growth inhibition call (S. aureus RN4220): inactive

CN1C(=O)c2cc(NC(=O)C3CCOCC3)ccc2OC[C@@H]2O[C@H](CC(=O)NCCc3ccncc3)CC[C@@H]21
cytotoxicity call (HSkMC): inactive
cytotoxicity call (HepG2): inactive
growth inhibition call (S. aureus RN4220): inactive

C[C@H]1CN([C@@H](C)CO)C(=O)c2cc(NC(=O)C3CC3)ccc2O[C@H]1CN(C)C(=O)Nc1ccc2c(c1)OCO2
cytotoxicity call (HSkMC): inactive
cytotoxicity call (HepG2): inactive
growth inhibition call (S. aureus RN4220): inactive

CO[C@H]1CN(C)C(=O)c2cc(NC(=O)C3CC3)ccc2OC[C@H](C)N(C(=O)Cc2ccccn2)C[C@@H]1C
cytotoxicity call (HSkMC): inactive
cytotoxicity call (HepG2): inactive
growth inhibition call (S. aureus RN4220): inactive

C[C@@H]1CN([C@@H](C)CO)C(=O)c2cc(NC(=O)Nc3ccc(C(F)(F)F)cc3)ccc2O[C@H]1CN(C)S(=O)(=O)c1ccc(Cl)cc1
cytotoxicity call (HSkMC): inactive
cytotoxicity call (HepG2): active
growth inhibition call (S. aureus RN4220): inactive

C[C@H]1CCCCO[C@H](CN(C)S(C)(=O)=O)[C@@H](C)CN([C@@H](C)CO)C(=O)c2cc(NS(=O)(=O)c3cn(C)cn3)ccc2O1
cytotoxicity call (HSkMC): inactive
cytotoxicity call (HepG2): inactive
growth inhibition call (S. aureus RN4220): inactive

O=C(NO)c1cccnc1
cytotoxicity call (HSkMC): inactive
cytotoxicity call (HepG2): inactive
growth inhibition call (S. aureus RN4220): inactive

Cc1noc(C)c1NC(=O)N(C)C[C@H]1OCCCC[C@@H](C)Oc2ccc(NS(=O)(=O)c3ccc(Cl)cc3)cc2C(=O)N([C@@H](C)CO)C[C@H]1C
cytotoxicity call (HSkMC): inactive
cytotoxicity call (HepG2): inactive
growth inhibition call (S. aureus RN4220): inactive

NS(=O)(=O)c1ccc(N2CCCC2=O)cc1
cytotoxicity call (HSkMC): inactive
cytotoxicity call (HepG2): inactive
growth inhibition call (S. aureus RN4220): inactive

Cc1ccc(S(=O)(=O)N(C)C[C@H]2Oc3ccc(NS(C)(=O)=O)cc3CC(=O)N([C@@H](C)CO)C[C@@H]2C)cc1
cytotoxicity call (HSkMC): inactive
cytotoxicity call (HepG2): inactive
growth inhibition call (S. aureus RN4220): inactive

Cc1noc(C)c1S(=O)(=O)N(C)C[C@@H]1OCCCC[C@H](C)Oc2ccc(NC(=O)Nc3ccc(F)cc3)cc2C(=O)N([C@H](C)CO)C[C@@H]1C
cytotoxicity call (HSkMC): inactive
cytotoxicity call (HepG2): inactive
growth inhibition call (S. aureus RN4220): inactive

O=c1oc2cc3occ(-c4ccccc4)c3cc2c2ccccc12
cytotoxicity call (HSkMC): inactive
cytotoxicity call (HepG2): inactive
growth inhibition call (S. aureus RN4220): inactive
